{
  "source": "the supplement of paper PMC8728848",
  "binders": {"B1": {"name": "DC-Sign (Homo sapiens), Q9NNX6 (protein)", "chain": "MSDSKEPRLQQLGLLEEEQLRGLGFRQTRGYKSLAGCLGHGPLVLQLLSFTLLAGLLVQVSKVPSSISQEQSRQDAIYQNLTQLKAAVGELSEKSKLQEIYQELTQLKAAVGELPEKSKLQEIYQELTRLKAAVGELPEKSKLQEIYQELTWLKAAVGELPEKSKMQEIYQELTRLKAAVGELPEKSKQQEIYQELTRLKAAVGELPEKSKQQEIYQELTRLKAAVGELPEKSKQQEIYQELTQLKAAVERLCHPCPWEWTFFQGNCYFMSNSQRNWHDSITACKEVGAQLVVIKSAEEQNFLQLQSSRSNRFTWMGLSDLNQEGTWQWVDGSPLLPSFKQYWNRGEPNNVGEEDCAEFSGNGWNDDKCNLAKFWICKKSAASCSRDEEQFLSPAPATPNPPPA"}},
  "test_in_all_cases": "glycan array binding signal (z-score within array); higher = stronger binding",
  "settings_in_all_cases": "glycan notation: IUPAC condensed, linker removed",
  "key": {"[1]": {"biological_target": "Fuc(a1-3)[Gal3S(b1-4)]GlcNAc", "procedure,_shortened": "(§1)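 Glycan array data came from 3228 arrays in the Consortium for Functional Glycomics database, and only arrays with an available protein sequence were kept. Glycan names were put into IUPAC-condensed notation, and columns mapping to the same glycan were averaged. The binding signal is a within-array Z-score, averaged across arrays of one protein sequence run at different concentrations or buffers and across linkers. A negative Z-score can be read as non-binding.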"}, "[2]": {"biological_target": "Fuc(a1-3)[Gal3S(b1-4)]GlcNAc6S", "procedure,_shortened": "as §1"}, "[3]": {"biological_target": "Fuc(a1-3)[GalNAc(b1-4)]GlcNAc", "procedure,_shortened": "as §1"}, "[4]": {"biological_target": "Fuc(a1-3)[GalNAc(b1-4)]GlcNAc6S", "procedure,_shortened": "as §1"}, "[5]": {"biological_target": "Fuc(a1-4)GlcNAc", "procedure,_shortened": "as §1"}, "[6]": {"biological_target": "Fuc(b1-3)GlcNAc", "procedure,_shortened": "as §1"}, "[7]": {"biological_target": "Gal(a1-2)Gal", "procedure,_shortened": "as §1"}, "[8]": {"biological_target": "Gal(a1-3)Gal", "procedure,_shortened": "as §1"}, "[9]": {"biological_target": "Gal(a1-3)Gal(b1-3)GlcNAc", "procedure,_shortened": "as §1"}, "[10]": {"biological_target": "Gal(a1-3)Gal(b1-3)GlcNAc(b1-2)Man", "procedure,_shortened": "as §1"}, "[11]": {"biological_target": "Gal(a1-3)Gal(b1-3)GlcNAc(b1-2)Man(a1-3)[Gal(a1-3)Gal(b1-3)GlcNAc(b1-2)Man(a1-6)]Man(b1-4)GlcNAc(b1-4)GlcNAc", "procedure,_shortened": "as §1"}, "[12]": {"biological_target": "Gal(a1-3)Gal(b1-3)GlcNAc(b1-3)GalNAc", "procedure,_shortened": "as §1"}, "[13]": {"biological_target": "Gal(a1-3)Gal(b1-3)GlcNAc(b1-6)GalNAc", "procedure,_shortened": "as §1"}, "[14]": {"biological_target": "Gal(a1-3)Gal(b1-3)[Fuc(a1-4)]GlcNAc(b1-2)Man(a1-3)[Gal(a1-3)Gal(b1-3)[Fuc(a1-4)]GlcNAc(b1-2)Man(a1-6)]Man(b1-4)GlcNAc(b1-4)GlcNAc", "procedure,_shortened": "as §1"}, "[15]": {"biological_target": "Gal(a1-3)Gal(b1-4)Glc", "procedure,_shortened": "as §1"}, "[16]": {"biological_target": "Gal(a1-3)Gal(b1-4)GlcNAc", "procedure,_shortened": "as §1"}, "[17]": {"biological_target": "Gal(a1-3)Gal(b1-4)GlcNAc(b1-2)Man", "procedure,_shortened": "as §1"}, "[18]": {"biological_target": "Gal(a1-3)Gal(b1-4)GlcNAc(b1-2)Man(a1-3)[Gal(a1-3)Gal(b1-4)GlcNAc(b1-2)Man(a1-6)]Man(b1-4)GlcNAc(b1-4)GlcNAc", "procedure,_shortened": "as §1"}, "[19]": {"biological_target": "Gal(a1-3)Gal(b1-4)GlcNAc(b1-3)GalNAc", "procedure,_shortened": "as §1"}, "[20]": {"biological_target": "Gal(a1-3)Gal(b1-4)GlcNAc(b1-6)GalNAc", "procedure,_shortened": "as §1"}, "[21]": {"biological_target": "Gal(a1-3)Gal(b1-4)[Fuc(a1-3)]GlcNAc", "procedure,_shortened": "as §1"}, "[22]": {"biological_target": "Gal(a1-3)Gal(b1-4)[Fuc(a1-3)]GlcNAc(b1-2)Man(a1-3)[Gal(a1-3)Gal(b1-4)[Fuc(a1-3)]GlcNAc(b1-2)Man(a1-6)]Man(b1-4)GlcNAc(b1-4)GlcNAc", "procedure,_shortened": "as §1"}, "[23]": {"biological_target": "Gal(a1-3)GalNAc", "procedure,_shortened": "as §1"}, "[24]": {"biological_target": "Gal(a1-3)[Gal(a1-4)]Gal(b1-4)GlcNAc", "procedure,_shortened": "as §1"}, "[25]": {"biological_target": "Gal(a1-4)Gal(b1-3)GlcNAc(b1-2)Man(a1-3)[Gal(a1-4)Gal(b1-3)GlcNAc(b1-2)Man(a1-6)]Man(b1-4)GlcNAc(b1-4)GlcNAc", "procedure,_shortened": "as §1"}, "[26]": {"biological_target": "Gal(a1-4)Gal(b1-4)Glc", "procedure,_shortened": "as §1"}, "[27]": {"biological_target": "Gal(a1-4)Gal(b1-4)GlcNAc", "procedure,_shortened": "as §1"}, "[28]": {"biological_target": "Gal(a1-4)Gal(b1-4)GlcNAc(b1-2)Man(a1-3)[Gal(a1-4)Gal(b1-4)GlcNAc(b1-2)Man(a1-6)]Man(b1-4)GlcNAc(b1-4)GlcNAc", "procedure,_shortened": "as §1"}, "[29]": {"biological_target": "Gal(a1-4)Gal(b1-4)GlcNAc(b1-3)Gal(b1-4)Glc", "procedure,_shortened": "as §1"}, "[30]": {"biological_target": "Gal(a1-4)GlcNAc", "procedure,_shortened": "as §1"}, "[31]": {"biological_target": "Gal(a1-6)Glc", "procedure,_shortened": "as §1"}, "[32]": {"biological_target": "Gal(b1-2)Gal", "procedure,_shortened": "as §1"}, "[33]": {"biological_target": "Gal(b1-3)Gal", "procedure,_shortened": "as §1"}, "[34]": {"biological_target": "Gal(b1-3)Gal(b1-4)GlcNAc", "procedure,_shortened": "as §1"}, "[35]": {"biological_target": "Gal(b1-3)GalNAc", "procedure,_shortened": "as §1"}, "[36]": {"biological_target": "Gal(b1-3)GalNAc(a1-3)[Fuc(a1-2)]Gal(b1-4)Glc", "procedure,_shortened": "as §1"}, "[37]": {"biological_target": "Gal(b1-3)GalNAc(a1-3)[Fuc(a1-2)]Gal(b1-4)GlcNAc", "procedure,_shortened": "as §1"}},
  "note": "This is one part of the list.",
  "data": [
    {"binder": "B1", "values": [
      {"measurement": "glycan array binding signal (z-score)", "setting": "[1]", "result": -0.138},
      {"measurement": "glycan array binding signal (z-score)", "setting": "[2]", "result": -0.13},
      {"measurement": "glycan array binding signal (z-score)", "setting": "[3]", "result": 0.283},
      {"measurement": "glycan array binding signal (z-score)", "setting": "[4]", "result": 1.43},
      {"measurement": "glycan array binding signal (z-score)", "setting": "[5]", "result": -0.011},
      {"measurement": "glycan array binding signal (z-score)", "setting": "[6]", "result": 0.158},
      {"measurement": "glycan array binding signal (z-score)", "setting": "[7]", "result": -0.183},
      {"measurement": "glycan array binding signal (z-score)", "setting": "[8]", "result": -0.208},
      {"measurement": "glycan array binding signal (z-score)", "setting": "[9]", "result": -0.186},
      {"measurement": "glycan array binding signal (z-score)", "setting": "[10]", "result": -0.191},
      {"measurement": "glycan array binding signal (z-score)", "setting": "[11]", "result": -0.178},
      {"measurement": "glycan array binding signal (z-score)", "setting": "[12]", "result": -0.173},
      {"measurement": "glycan array binding signal (z-score)", "setting": "[13]", "result": -0.178},
      {"measurement": "glycan array binding signal (z-score)", "setting": "[14]", "result": -0.018},
      {"measurement": "glycan array binding signal (z-score)", "setting": "[15]", "result": -0.198},
      {"measurement": "glycan array binding signal (z-score)", "setting": "[16]", "result": -0.165},
      {"measurement": "glycan array binding signal (z-score)", "setting": "[17]", "result": -0.192},
      {"measurement": "glycan array binding signal (z-score)", "setting": "[18]", "result": -0.168},
      {"measurement": "glycan array binding signal (z-score)", "setting": "[19]", "result": -0.172},
      {"measurement": "glycan array binding signal (z-score)", "setting": "[20]", "result": -0.135},
      {"measurement": "glycan array binding signal (z-score)", "setting": "[21]", "result": -0.154},
      {"measurement": "glycan array binding signal (z-score)", "setting": "[22]", "result": -0.165},
      {"measurement": "glycan array binding signal (z-score)", "setting": "[23]", "result": -0.169},
      {"measurement": "glycan array binding signal (z-score)", "setting": "[24]", "result": -0.089},
      {"measurement": "glycan array binding signal (z-score)", "setting": "[25]", "result": -0.131},
      {"measurement": "glycan array binding signal (z-score)", "setting": "[26]", "result": -0.217},
      {"measurement": "glycan array binding signal (z-score)", "setting": "[27]", "result": -0.167},
      {"measurement": "glycan array binding signal (z-score)", "setting": "[28]", "result": -0.171},
      {"measurement": "glycan array binding signal (z-score)", "setting": "[29]", "result": -0.187},
      {"measurement": "glycan array binding signal (z-score)", "setting": "[30]", "result": -0.192},
      {"measurement": "glycan array binding signal (z-score)", "setting": "[31]", "result": -0.193},
      {"measurement": "glycan array binding signal (z-score)", "setting": "[32]", "result": -0.177},
      {"measurement": "glycan array binding signal (z-score)", "setting": "[33]", "result": -0.191},
      {"measurement": "glycan array binding signal (z-score)", "setting": "[34]", "result": -0.083},
      {"measurement": "glycan array binding signal (z-score)", "setting": "[35]", "result": -0.179},
      {"measurement": "glycan array binding signal (z-score)", "setting": "[36]", "result": -0.149},
      {"measurement": "glycan array binding signal (z-score)", "setting": "[37]", "result": -0.152}
    ]}
  ]
}
